Assay results taken from PubChem BioAssay AID624296 (National Center for Advancing Translational Sciences (NCATS), 2012).
Values joined by “and” are separate entries in the source; they are usually repeats but may differ in a detail not shown here. Identical values can stand only once. Out of some 350,000 compounds screened, about 9,900 (2.8%) were called active. Inconclusive means that the source gave no clear call. Such entries were picked first, then a sample of the others. Calls come from the whole dose curve; as a rule, active = well fitted activation curve with a large enough effect; inconclusive = small, poorly fitted or top-dose-only effect; inactive = no such curve, though single readings can be large or run the other way. A potency beside an inconclusive call is a rough fit, not a confirmed value.

Assay: A quantitative high throughput screen for small molecules that induce DNA re-replication in MCF 10a normal breast cells. Note: nearly all actives have a fitted effect of over 50% in size.
Details: MCF 10A DNA re-replication, Hoechst nuclear intensity, 48 h; series mostly up to 46.1 µM
Potency is the fitted concentration of half-maximal effect; tags give direction and shape of the fitted curve.

**Q.** With `COc1ccc(NC(=O)c2cc(Cl)ccc2NC(=O)c2ccco2)c(OC)c1` as the compound, how does the Potency read?
**A.** inconclusive: 0.103 µM [activator, full curve]

**Q.** With `CN(C)C1=NC[C@H](Cc2ccccc2)N1CCc1cccc(F)c1` as the compound, how does the Potency read?
**A.** inactive

**Q.** Which Potency does the source give for `Cc1sc2ncnc(NCC3COc4ccccc4O3)c2c1C` (stereo not given) here?
**A.** inconclusive: 0.82 µM [activator, full curve, poor fit]

**Q.** With `O=C(NCCS(=O)(=O)N1CCCCCC1)c1ccc(F)cc1` as the compound, how does the Potency read?
**A.** inconclusive: 29.1 µM [activator, single point]

**Q.** Which Potency does the source give for `O=C(/C=C/c1ccccc1)Nc1cccc(C(=O)N2CCCC2)c1` here?
**A.** inactive

**Q.** Which Potency does the source give for `O=C(Nc1ccccc1F)C(=O)Nc1cccc2ccccc12` here?
**A.** inconclusive: 32.6 µM [activator, partial curve, poor fit]

**Q.** With `CSc1ccc(C2c3[nH]c4ccccc4c3CCN2C(=O)c2ccnn2C)cc1` (stereo not given) as the compound, how does the Potency read?
**A.** inconclusive: 18.4 µM [activator, single point]

**Q.** For `COc1ccc(C(=O)CC(=O)c2ccc(C(C)(C)C)cc2)cc1`, which Potency is on record?
**A.** inconclusive: 16.8 µM [activator, full curve, poor fit] and inconclusive: 291 nM [activator, full curve, poor fit]

**Q.** With `OC(CSc1ccccc1Cl)CN1CCN(c2ccccc2F)CC1` (stereo not given) as the compound, how does the Potency read?
**A.** inconclusive: 29.1 µM [activator, single point]

**Q.** With `C/C(=N\NC(=O)CSc1nc2ccccc2s1)c1cccnc1` as the compound, how does the Potency read?
**A.** inactive

**Q.** For `Cc1cc(C(C)(C)C)n2nc(C)c(-c3ccccc3)c2n1`, which Potency is on record?
**A.** inconclusive: 0.0058 µM [activator, full curve, poor fit]

**Q.** Which Potency does the source give for `COc1cccc(C(=O)NNC(=O)c2ccc3ccccc3c2O)c1` here?
**A.** inconclusive: 20.6 µM [activator, single point]

**Q.** Which Potency does the source give for `Cc1ccc(-n2c(Cc3cccs3)nnc2SCC(=O)OC(C)C)cc1` here?
**A.** inconclusive: 29.1 µM [activator, single point]

**Q.** For `Cc1ccc(C(=O)CCC(=O)Nc2ccccc2C)c(C)c1`, which Potency is on record?
**A.** inactive

**Q.** Which Potency does the source give for `Cc1ccc(S(=O)(=O)NC2OC(=O)C(Cl)=C2Cl)cc1` (stereo not given) here?
**A.** inconclusive: 29.1 µM [activator, single point]

**Q.** With `O=C1C(N2CCOCC2)=C(n2nnc3ccccc32)C(=O)c2ccccc21` as the compound, how does the Potency read?
**A.** inconclusive: 16.4 µM [activator, single point]

**Q.** With `Cc1oc2cc(OC(C)C(=O)O)ccc2c(=O)c1Oc1ccccc1` (stereo not given) as the compound, how does the Potency read?
**A.** inconclusive: 0.0651 µM [activator, full curve, poor fit]

**Q.** Which Potency does the source give for `O=C(Cc1cccc(NC(=O)C2CCN(C(=O)CCc3ccccc3)CC2)c1)Nc1cccc(C(=O)N2CCCCC2)c1` here?
**A.** inconclusive: 20.6 µM [activator, partial curve, poor fit]

**Q.** Which Potency does the source give for `CCOC(=O)C1=C(C)N=C2SCCC(=O)N2C1c1cc(Br)ccc1OC` (stereo not given) here?
**A.** inconclusive: 32.6 µM [activator, partial curve, poor fit]

**Q.** With `CCOC(=O)C1(Cc2cccc(Cl)c2)CCCN(C(=O)c2ccc(COC)s2)C1` (stereo not given) as the compound, how does the Potency read?
**A.** inconclusive: 3.66 µM [activator, partial curve, poor fit]

**Q.** For `O=C(C1=C[C@@H](c2ccc3c(c2)OCO3)C[C@@H](OCCCCO)O1)N1CCN(Cc2ccc3c(c2)OCO3)CC1`, which Potency is on record?
**A.** inconclusive: 29.1 µM [activator, single point]

**Q.** With `OC[C@H]1O[C@H](OC[C@H]2OC(O)[C@H](O)[C@@H](O)[C@@H]2O)[C@H](O)[C@@H](O)[C@@H]1O` (stereo not given in full) as the compound, how does the Potency read?
**A.** inactive

**Q.** Which Potency does the source give for `COc1ccc(-c2cc(C)no2)cc1S(=O)(=O)N1CCN(c2cccc(C)c2)C(C)C1` (stereo not given) here?
**A.** inconclusive: 32.6 µM [activator, partial curve, poor fit]

**Q.** Which Potency does the source give for `COc1ccc(CC2(CO)CCN(Cc3cccn3-c3ccccn3)CC2)cc1` here?
**A.** inconclusive: 7.31 µM [activator, partial curve, poor fit]

**Q.** With `CC1CCN(C(=O)Cn2c(=O)n(Cc3ccc4c(c3)OCO4)c(=O)c3ccccc32)CC1` as the compound, how does the Potency read?
**A.** inactive

**Q.** For `Cc1nc2ccccc2c(=O)n1NC(=O)c1ccc(Cl)c([N+](=O)[O-])c1`, which Potency is on record?
**A.** inconclusive: 4.11 µM [activator, single point]

**Q.** With `Cc1ccc(S(=O)(=O)N(Cc2cccc(F)c2)C(=O)N2CCN(C)CC2)cc1` as the compound, how does the Potency read?
**A.** inactive

**Q.** For `CC(C)Cc1nnc(NC(=O)CCC(=O)NC2CCCCC2)s1`, which Potency is on record?
**A.** inactive

**Q.** With `Cc1cc(OCC(O)CN2CCN(c3ccccn3)CC2)cc(C)c1Cl` (stereo not given) as the compound, how does the Potency read?
**A.** inconclusive: 29.1 µM [activator, partial curve, poor fit]

**Q.** For `CCN1CCN(c2c(/C=C3\SC(=S)N(Cc4ccco4)C3=O)c(C)c(C#N)c(=O)n2C)CC1`, which Potency is on record?
**A.** inconclusive: 29.1 µM [activator, single point]

**Q.** For `Cc1cc(NC(=O)c2cncc(Br)c2)ccc1NC(=O)c1cc2ccccc2o1`, which Potency is on record?
**A.** active: 2.91 µM

**Q.** Which Potency does the source give for `CCN(Cc1ccncc1)S(=O)(=O)c1ccc(C(C)=O)cc1` here?
**A.** inconclusive: 14.6 µM [activator, partial curve, poor fit]

**Q.** With `CN(Cc1ccccc1)C(=O)COc1ccc(C(C)(C)C)cc1` as the compound, how does the Potency read?
**A.** inconclusive: 32.6 µM [activator, partial curve, poor fit]

**Q.** For `CCN1CCN(c2cc(C)c3cc(NC(=O)c4cccc(OC)c4)ccc3n2)CC1`, which Potency is on record?
**A.** inconclusive: 23.1 µM [activator, single point]

**Q.** For `Cn1c(=O)[nH]c(=O)c2c1nc(N1CCCCC1)n2CC(O)COc1ccc([N+](=O)[O-])cc1` (stereo not given), which Potency is on record?
**A.** inconclusive: 23.1 µM [activator, single point]

**Q.** Which Potency does the source give for `O=C1CC(C(=O)O)C2(CCCC2)O1` (stereo not given) here?
**A.** inactive

**Q.** With `CCc1oc(C(=O)OC)cc1CSC(=N)N` as the compound, how does the Potency read?
**A.** inconclusive: 29.1 µM [activator, single point]

**Q.** For `O=C(COc1ccccc1)Nc1cc(C(F)(F)F)ccc1N1CCCC1`, which Potency is on record?
**A.** inconclusive: 7.31 µM [activator, partial curve]

**Q.** For `CC(O)CNCCNCc1c(OCc2ccccc2)ccc2ccccc12` (stereo not given), which Potency is on record?
**A.** inconclusive: 20.6 µM [activator, single point]

**Q.** For `O=c1c2ccccc2nc2n1C1(CCCCC1)Cc1ccccc1-2`, which Potency is on record?
**A.** active: 18.4 µM

**Q.** Which Potency does the source give for `CCCCSc1nc2sc3c(c2c(=O)[nH]1)CC(C)(CC)OC3` (stereo not given) here?
**A.** inconclusive: 29.1 µM [activator, single point]

**Q.** With `[O-][n+]1c2ccccc2[n+]([O-])c2cc(O)ccc21` as the compound, how does the Potency read?
**A.** inactive

**Q.** With `C=CCc1c(C)nc(SCC(=C)C)[nH]c1=O` as the compound, how does the Potency read?
**A.** inconclusive: 20.6 µM [activator, partial curve, poor fit]

**Q.** Which Potency does the source give for `O=C(CSc1nnc(-c2ccccn2)n1Cc1ccco1)c1ccc(-c2ccccc2)cc1` here?
**A.** inconclusive: 0.82 µM [activator, full curve, poor fit]

**Q.** For `O=C(CSc1n[nH]c(=O)n1C1CC1)NCc1ccccc1Cl`, which Potency is on record?
**A.** inconclusive: 6.51 µM [activator, single point]

**Q.** Which Potency does the source give for `Cc1cccc(NS(=O)(=O)c2ccc(-c3cnc(C4CC4)o3)cc2)c1C` here?
**A.** inconclusive: 0.146 µM [activator, full curve, poor fit]

**Q.** With `O=C(Nc1ccccc1O)N1c2ccccc2Sc2ccccc21` as the compound, how does the Potency read?
**A.** inconclusive: 23.1 µM [activator, partial curve, poor fit]

**Q.** For `OC(COCc1ccc2c(c1)OCO2)CN1CCC(Cc2ccccc2)CC1` (stereo not given), which Potency is on record?
**A.** inconclusive: 29.1 µM [activator, single point]

**Q.** Which Potency does the source give for `CC(C)c1ccc(C(CC(=O)c2ccc(Cl)cc2)C(=O)O)cc1` (stereo not given) here?
**A.** inconclusive: 18.4 µM [activator, partial curve, poor fit]

**Q.** Which Potency does the source give for `CC(C)c1cc(C(=O)O)c2cnn(C(C)C)c2n1` here?
**A.** inconclusive: 29.1 µM [activator, single point]

**Q.** For `O=[N+]([O-])c1ccc(-c2ccn[nH]2)o1`, which Potency is on record?
**A.** inconclusive: 18.4 µM [activator, single point]

**Q.** Which Potency does the source give for `CC(C)OC(=S)N/C(=N\S(=O)(=O)c1ccccc1)c1ccccc1` here?
**A.** inactive

**Q.** With `COC(=O)c1cc(NC(=O)c2c(F)c(F)c(F)c(F)c2F)cc(C(=O)OC)c1` as the compound, how does the Potency read?
**A.** inconclusive: 18.4 µM [activator, single point]

**Q.** For `Nc1c(N(CCC2=CCCCC2)C(=O)c2ccc([N+](=O)[O-])o2)c(=O)[nH]c(=O)n1Cc1ccccc1`, which Potency is on record?
**A.** inconclusive: 29.1 µM [activator, single point]

**Q.** For `Cc1c(C(=O)OCC(=O)N(C)c2ccccc2)oc2ccccc12`, which Potency is on record?
**A.** inactive

**Q.** With `CCCCCCN1C=CC=C/C1=C/C=C(C#N)C#N` as the compound, how does the Potency read?
**A.** inconclusive: 29.1 µM [activator, single point]

**Q.** With `COc1ccc(-c2cccc(CCC(=O)N3CCN(c4cc(C)ccc4C)CC3)c2)cc1` as the compound, how does the Potency read?
**A.** inconclusive: 32.6 µM [activator, partial curve, poor fit]

**Q.** Which Potency does the source give for `CCOc1ccccc1NC(=O)c1nc(S(=O)(=O)Cc2cccc(C)c2)ncc1Cl` here?
**A.** inconclusive: 23.1 µM [activator, single point]

**Q.** Which Potency does the source give for `Cc1nn(-c2ccccc2)c2sc(C(=O)NNC(=O)COc3cccc4ccccc34)cc12` here?
**A.** active: 23.1 µM

**Q.** Which Potency does the source give for `CC(=O)N1CCN(c2ccc(NC(=O)c3ccc4c(c3)OCCO4)cc2Cl)CC1` here?
**A.** inconclusive: 25.9 µM [activator, partial curve, poor fit]

**Q.** For `NC(=O)n1c(O)c(C(=O)c2cccs2)c2cc(Cl)ccc21`, which Potency is on record?
**A.** inconclusive: 18.8 µM [activator, partial curve, poor fit]

**Q.** Which Potency does the source give for `CCc1ccc(-c2cc(C)no2)cc1S(=O)(=O)N1CCC(C)CC1` here?
**A.** inactive

**Q.** With `Cc1cc(C)c2ccc3c(C)c(C)nc3c2[nH]1` as the compound, how does the Potency read?
**A.** active: 20.6 µM

**Q.** Which Potency does the source give for `Cc1ccsc1C(=O)Nc1ccc2c(c1)OCCO2` here?
**A.** inactive

**Q.** Which Potency does the source give for `COc1ccc(CC(=O)NCC2CCCN(Cc3cccc(SC)c3)C2)cc1` (stereo not given) here?
**A.** inconclusive: 18.4 µM [activator, partial curve, poor fit]
